In publication PMC3513311:
Results are given in words; binding and its absence hold for the method and conditions named. Binding seen in cells or lysates may run through a third protein. Some results given as binding are weak or reduced against the parent protein; the word gives no strength. Tags and fused reporters may be left off the sequences shown.

T1: C-terminally FLAG-tagged Csy1 (Pectobacterium atrosepticum SCRI1043) (UniProt Q6D0W8)
T1 sequence: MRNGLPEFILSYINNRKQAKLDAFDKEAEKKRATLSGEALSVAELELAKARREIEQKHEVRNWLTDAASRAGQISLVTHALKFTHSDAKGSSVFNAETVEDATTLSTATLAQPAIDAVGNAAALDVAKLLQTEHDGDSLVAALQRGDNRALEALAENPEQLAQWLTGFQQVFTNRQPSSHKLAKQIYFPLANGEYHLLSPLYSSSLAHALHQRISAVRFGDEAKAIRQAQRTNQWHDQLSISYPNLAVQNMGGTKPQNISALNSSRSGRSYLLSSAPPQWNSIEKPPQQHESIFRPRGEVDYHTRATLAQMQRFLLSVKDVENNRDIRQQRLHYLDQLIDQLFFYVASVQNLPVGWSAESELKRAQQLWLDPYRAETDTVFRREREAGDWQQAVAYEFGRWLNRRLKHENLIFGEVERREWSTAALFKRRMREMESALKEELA

T2: N-terminally FLAG-tagged Csy1 (Pectobacterium atrosepticum SCRI1043) (UniProt Q6D0W8)
T2 sequence: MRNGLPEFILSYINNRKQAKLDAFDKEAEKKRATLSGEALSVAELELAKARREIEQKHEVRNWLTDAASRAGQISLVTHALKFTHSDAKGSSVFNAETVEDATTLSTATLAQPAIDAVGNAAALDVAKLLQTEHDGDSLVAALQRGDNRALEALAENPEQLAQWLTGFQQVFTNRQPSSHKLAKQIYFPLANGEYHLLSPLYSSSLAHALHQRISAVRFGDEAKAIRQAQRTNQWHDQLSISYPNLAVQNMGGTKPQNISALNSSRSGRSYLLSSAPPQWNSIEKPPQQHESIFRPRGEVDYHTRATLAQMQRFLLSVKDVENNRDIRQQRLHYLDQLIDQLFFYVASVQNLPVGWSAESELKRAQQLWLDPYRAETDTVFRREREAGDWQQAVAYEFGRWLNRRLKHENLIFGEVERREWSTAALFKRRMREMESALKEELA

T3: N-terminally FLAG-tagged Csy2 (Pectobacterium atrosepticum SCRI1043) (UniProt Q6D0W7)
T3 sequence: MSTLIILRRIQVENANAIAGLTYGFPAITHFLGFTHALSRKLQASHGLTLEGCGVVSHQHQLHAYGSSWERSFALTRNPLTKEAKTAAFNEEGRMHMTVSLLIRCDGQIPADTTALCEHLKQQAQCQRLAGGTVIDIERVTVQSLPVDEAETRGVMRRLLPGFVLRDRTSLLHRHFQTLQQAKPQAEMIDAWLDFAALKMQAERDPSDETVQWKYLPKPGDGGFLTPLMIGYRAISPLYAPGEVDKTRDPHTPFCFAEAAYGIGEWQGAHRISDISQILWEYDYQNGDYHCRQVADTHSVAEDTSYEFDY


Legend:
[1] = target: T1, C-terminally FLAG-tagged Csy1 (Pectobacterium atrosepticum SCRI1043); experiment: co-IP; P. atrosepticum WT strain (chromosomal Cas/Csy proteins and crRNAs present); N- or C-terminally FLAG-tagged bait and N-terminally His-tagged prey co-expressed; anti-FLAG agarose; Western blot with anti-His
[2] = target: T2, N-terminally FLAG-tagged Csy1 (Pectobacterium atrosepticum SCRI1043); experiment: as above
[3] = target: T3, N-terminally FLAG-tagged Csy2 (Pectobacterium atrosepticum SCRI1043); experiment: as above
[4] = target: T1, C-terminally FLAG-tagged Csy1 (Pectobacterium atrosepticum SCRI1043); experiment: co-IP; P. atrosepticum Δcas strain (no cas1, cas3, csy1-3, cas6f operon, no mature crRNAs); N- or C-terminally FLAG-tagged bait and N-terminally His-tagged prey co-expressed; anti-FLAG agarose; Western blot with anti-His
[5] = target: T2, N-terminally FLAG-tagged Csy1 (Pectobacterium atrosepticum SCRI1043); experiment: as above
[6] = target: T3, N-terminally FLAG-tagged Csy2 (Pectobacterium atrosepticum SCRI1043); experiment: as above
[7] = target: T1, C-terminally FLAG-tagged Csy1 (Pectobacterium atrosepticum SCRI1043); experiment: condition: only in the Δcas strain (no other Cas or Csy proteins, no mature crRNAs); co-IP; P. atrosepticum Δcas strain (no cas1, cas3, csy1-3, cas6f operon, no mature crRNAs); N- or C-terminally FLAG-tagged bait and N-terminally His-tagged prey co-expressed; anti-FLAG agarose; Western blot with anti-His

binding [1]	binding [2]	binding [3]	binding [4]	binding [5]	binding [6]	binding [7]	Binder
no binding	no binding	binds	no binding	no binding	binds	–	N-terminally His-tagged Csy1 (protein, UniProt Q6D0W8 1-443) MRNGLPEFILSYINNRKQAKLDAFDKEAEKKRATLSGEALSVAELELAKARREIEQKHEVRNWLTDAASRAGQISLVTHALKFTHSDAKGSSVFNAETVEDATTLSTATLAQPAIDAVGNAAALDVAKLLQTEHDGDSLVAALQRGDNRALEALAENPEQLAQWLTGFQQVFTNRQPSSHKLAKQIYFPLANGEYHLLSPLYSSSLAHALHQRISAVRFGDEAKAIRQAQRTNQWHDQLSISYPNLAVQNMGGTKPQNISALNSSRSGRSYLLSSAPPQWNSIEKPPQQHESIFRPRGEVDYHTRATLAQMQRFLLSVKDVENNRDIRQQRLHYLDQLIDQLFFYVASVQNLPVGWSAESELKRAQQLWLDPYRAETDTVFRREREAGDWQQAVAYEFGRWLNRRLKHENLIFGEVERREWSTAALFKRRMREMESALKEELA
binds	binds	no binding	–	binds	no binding	no binding	N-terminally His-tagged Csy2 (protein, UniProt Q6D0W7 1-310) MSTLIILRRIQVENANAIAGLTYGFPAITHFLGFTHALSRKLQASHGLTLEGCGVVSHQHQLHAYGSSWERSFALTRNPLTKEAKTAAFNEEGRMHMTVSLLIRCDGQIPADTTALCEHLKQQAQCQRLAGGTVIDIERVTVQSLPVDEAETRGVMRRLLPGFVLRDRTSLLHRHFQTLQQAKPQAEMIDAWLDFAALKMQAERDPSDETVQWKYLPKPGDGGFLTPLMIGYRAISPLYAPGEVDKTRDPHTPFCFAEAAYGIGEWQGAHRISDISQILWEYDYQNGDYHCRQVADTHSVAEDTSYEFDY
